Data as given in PubChem BioAssay AID624296 (National Center for Advancing Translational Sciences (NCATS), 2012).
In all, about 350,000 compounds went through this assay and about 9,900 (2.8%) were called active. This list was built around the results that the source calls inconclusive (neither active nor inactive); the mix of calls is not that of the screen. Calls come from the whole dose curve; as a rule, active = well fitted activation curve with a large enough effect; inconclusive = small, poorly fitted or top-dose-only effect; inactive = no such curve, though single readings can be large or run the other way. Potencies of inconclusive entries are left out as doubtful fits.

Assay: A quantitative high throughput screen for small molecules that induce DNA re-replication in MCF 10a normal breast cells. Note: nearly all actives have a fitted effect of over 50% in size.
Conditions: MCF 10A DNA re-replication, Hoechst nuclear intensity, 48 h; series mostly up to 46.1 µM
Potency is the fitted concentration of half-maximal effect; tags give direction and shape of the fitted curve.

Row | SMILES | Potency
1 | COc1ccc(N2CCN(CC(=O)Nc3sccc3C#N)CC2)cc1 | inconclusive [activator, partial curve, poor fit]
2 | Nc1nonc1-n1nnc(C(=O)N/N=C/c2ccccc2F)c1CN1CCOCC1 | inconclusive [activator, single point]
3 | CCn1c2ccccc2c2cc(NC(=O)CSc3nnc(-c4ccc(OC)cc4)n3N)ccc21 | inconclusive [activator, single point]
4 | CCC(C)(C)NC(=O)c1cccc(NC(=O)C(C)C)c1 | inactive
5 | O=S1(=O)CCOC[C@H](c2ccccc2)N1Cc1ccccc1 | inconclusive [activator, full curve, poor fit]
6 | O=S(=O)(c1ccccc1)N(Cc1nc(-c2ccccc2)no1)C1CCCCC1 | inactive
7 | CCCCN1CC(=O)N2Cc3[nH]c4ccccc4c3C[C@H]2C1=O | inconclusive [activator, single point]
8 | CN(CCOc1ccccc1)C(=O)C1CCC(=O)N(CCCN2CCCC2=O)C1 (centres undefined) | inactive
9 | O=C(CNC(=S)NC(=O)c1ccc(Br)o1)c1ccccc1 | active: 6.51 µM
10 | Cc1ccsc1/C=C1/NC(=O)N(Cc2ccc(F)cc2)C1=O | inconclusive [activator, partial curve, poor fit]
11 | OCc1nc2ccccc2n1CCCOc1ccc(Br)cc1 | inactive
12 | O=C(NCCN1CCc2ccccc2C1)C1CC(=O)N(C2CCCC2)C1 (centres undefined) | inconclusive [activator, full curve, poor fit]
13 | Cn1c(=O)c2c(nc(N3CCN(Cc4ccccc4)CC3)n2CCCc2ccccc2)n(C)c1=O | inconclusive [activator, partial curve]
14 | CCCCCCCCCCC[N+](C)(C)CC/C=C1/c2ccccc2Sc2ccc(Cl)cc21 | inactive
15 | NC(=O)c1ccc(C(F)(F)F)n(Cc2c(Cl)cccc2Cl)c1=O | inconclusive [activator, single point]
16 | CCOC(=O)c1cnc2c(ccc3ccccc32)c1NCCCN(C)C | inconclusive [activator, single point]
17 | COc1ccc(C2c3ccc(O)cc3Oc3ncn4nc(-c5ccco5)nc4c32)cc1OC (centres undefined) | inconclusive [activator, single point]
18 | COc1ccc(NC(=O)Cn2c(=O)c(C)nc3ccccc32)cc1Cl | inconclusive [activator, single point]
19 | CCN(CC)Cc1csc(C(N)=O)c1 | inactive
20 | CC1CCN(S(=O)(=O)N2CCC(C(=O)NCCC3=CCCCC3)CC2)CC1 | inactive
21 | CCc1ccc(-n2c(=S)sc3c(=O)n(-c4ccccc4C)c(SCC(=O)O)nc32)cc1 | inactive
22 | CCN(CC(=O)Nc1ccc([N+](=O)[O-])cc1OC)CC(=O)NC(C)(C)C | inconclusive [activator, partial curve]

Row | SMILES | Potency
23 | O=c1[nH]c(/C(Cl)=C/c2c(F)cccc2Cl)nc2cc(Cl)ccc12 | inconclusive [activator, partial curve, poor fit]
24 | COCCCn1c(SCC(=O)N2CC(=O)Nc3ccccc32)nnc1-c1ccoc1C | inconclusive [activator, partial curve, poor fit]
25 | CCOC(=O)[C@H]1[C@H]2COc3cc(OC)ccc3[C@@H]2N2C(=O)c3cc(C)ccc3NC(=O)[C@@]12C | inconclusive [activator, full curve, poor fit]
26 | O=C(Cc1ccc(O)cc1)NCCNC(=S)NCc1ccccc1 | inconclusive [activator, single point]
27 | Cc1cccc2c1-c1sc(C(=O)NCCCN3CCCC(C)C3)cc1CO2 (centres undefined) | active: 23.1 µM
28 | CCCCn1c(N)c(N(CC(C)C)C(=O)c2ccc(OC)c(S(=O)(=O)N3CCOCC3)c2)c(=O)[nH]c1=O | inactive
29 | COc1ccc(NC(=O)COC(=O)c2ccc(-n3cnnn3)cc2)cc1Cl | inactive
30 | CCC(C(=O)N(C(C)C)C(C)C)c1ccccc1 (centres undefined) | inactive
31 | CC12CCC(C(=O)Nc3ccc(SC(F)F)cc3)(CC1=O)C2(C)C (centres undefined) | inconclusive [activator, single point]
32 | COc1ccccc1N1CCN(C2CCCN(C(=O)c3cc(C)oc3C)C2)CC1 (centres undefined) | inconclusive [activator, single point]
33 | COc1ccc(-c2ccc(SCC(=O)c3ccccc3)nn2)cc1OC | inconclusive [activator, single point]
34 | COc1c(Br)cc([N+](=O)[O-])c(OC)c1C(=O)NC(=O)Nc1cc(Cl)cc(Cl)c1 | inconclusive [activator, partial curve, poor fit]
35 | C=C(C)CSc1nc2sc3c(c2c(=O)n1-c1ccc(C)cc1)CCN(C)C3 | inactive
36 | CCCCCCCC(=O)N/N=C/c1ccc(Br)cc1 | active: 7.31 µM
37 | Cc1cccc(NC(=O)COc2ccc(-c3nn(C)c(=O)c4ccccc34)cc2)c1 | inconclusive [activator, single point]
38 | CCOc1ccc(C2/C(=C(/O)c3ccc(F)cc3)C(=O)C(=O)N2CCCN(C)C)cc1 (centres undefined) | inconclusive [activator, partial curve, poor fit]
39 | O=[N+]([O-])c1ccc(N=Nc2ccc(O)cc2O)cc1 | inconclusive [activator, partial curve]
40 | O=C(COC(=O)CCSc1ccccc1)Nc1ccc(F)cc1Cl | inconclusive [activator, partial curve, poor fit]
41 | CCc1nc2sc(C(=O)O)c(N)c2c2c1CCCC2 | inactive
42 | Cn1c(SCC(=O)Nc2sccc2C(N)=O)nc2ccccc2c1=O | inconclusive [activator, partial curve, poor fit]
43 | CCN(CC)CCNC(=O)c1ccc2c(=O)n(CCc3ccccc3)c(=O)[nH]c2c1 | inconclusive [activator, partial curve, poor fit]
44 | Cc1ccc(Cl)cc1N1CCN(C(=O)CNC(=O)c2ccc(Br)o2)CC1 | inactive
